PubChem BioAssay (Tox21)
Values joined by “and” are separate entries in the source; they are usually repeats but may differ in a detail not shown here. Equal values may be shown once. The inconclusive results got no clear call from the source; some entries with a clear call stand among them for comparison. Potencies beside an inconclusive call are fits to weak or partial responses and may not hold up. Active and inactive are the calls of the source. Calls come from the whole dose curve; as a rule, active = well fitted activation curve with a large enough effect in the repeat runs; inconclusive = weak or mixed curves; inactive = flat fitted curve, though single readings scatter.

assay: A CellTox Green Cytotoxicity Assay to monitor cytotoxicity in HEK293 cells - 32 hour (AID 1224881); settings: CellTox Green fluorescence; series mostly up to 76.8 µM; note: nearly all actives have a fitted effect of over 40% in size
In short: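 Tox21 screen in HEK293: membrane-impermeant cyanine dye fluoresces on binding dead-cell DNA; compound pinned 5 h post-seeding, plates held at 37 C, signal read repeatedly through 40 h.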
Potency is the fitted concentration of half-maximal effect; tags give direction and shape of the fitted curve.

Compound | Potency
CCCCCc1ccc(N)cc1 | inconclusive: 49 µM [activator, single point]
OCc1c[nH]c2ccccc12 | inconclusive: 54.9 µM [activator, single point]
O=C1NCCN1CCN1CCC(c2cn(-c3ccc(F)cc3)c3ccc(Cl)cc23)CC1 | active: 23.9 µM
COc1ccc(C(=O)CC(=O)c2ccc(C(C)(C)C)cc2)cc1 | inconclusive: 26.8 µM [activator, single point]
CC(Cc1cccc(C(F)(F)F)c1)NCCOC(=O)c1ccccc1 (configuration not stated) | active: 21.3 µM
CC/C=C\CCOC(=O)c1ccccc1 | inconclusive: 54.9 µM [activator, single point]
CCCC1O[C@@H]2C[C@H]3[C@@H]4CCC5=CC(=O)C=C[C@]5(C)[C@H]4[C@@H](O)C[C@]3(C)[C@]2(C(=O)CO)O1 (some centres not stated) | inconclusive: 27.6 µM [activator, partial curve, poor fit]
C=CC(=O)OCC(CO)(COC(=O)C=C)COC(=O)C=C | inconclusive: 2.46 µM [activator, full curve, poor fit]
O=Cc1cc(O)ccc1Br | inconclusive: 55.7 µM [activator, single point]
Nc1c2ccccc2nc2ccccc12 | inconclusive: 8.49 µM [activator, partial curve, poor fit]
CNCCCN1c2ccccc2CCc2ccccc21 | inconclusive: 26.8 µM [activator, single point]
C#C[C@]1(O)CC[C@H]2[C@@H]3CCc4cc(OC)ccc4[C@H]3CC[C@@]21C | inconclusive: 54.9 µM [activator, single point] and inconclusive: 26.8 µM [activator, single point]
